# Results taken from publication PMC12136788.
# The list shows a part of the results.
# T1: UNK ZnF1-3 (human, UniProt Q9C0B0 31-174)
# T1 sequence: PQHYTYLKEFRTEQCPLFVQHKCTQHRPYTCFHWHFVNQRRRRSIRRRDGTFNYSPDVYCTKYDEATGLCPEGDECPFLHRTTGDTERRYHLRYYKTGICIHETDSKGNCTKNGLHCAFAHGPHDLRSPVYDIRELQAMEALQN
# B1: chr4:115894766:115894767:+_ENSMUSG00000028698_ENSMUST00000030464|mus_hu|mus_mus_mus_hu_True|38_78 (ssRNA)
# RNA: GGGAGUUCUACAGUCCGACGAUCUUCCACACGGAAAUGUACUUCGGGUUUUCCAACGCCAGUACAAAGUCCGGCCAAACUACCCGAACAGGGUCCUGUCCUCCUCUCCUACAGAACACAACAAAAUGCCCCCGAACUUUCAAGCAACAGAGGAUUGAGCAUCA
# B2: 8639371_8660485_348_CDS_ENSMUSG00000001300_ENSMUST00000001319|mouse|control|control (ssRNA)
# RNA: GGGAGUUCUACAGUCCGACGAUCCAUAUAAACUUUAUAAUAUUCAUACUGGCCAACAGUUUUAGAGUCCACUUUGGGGCAAAUAAUAUCCAAUUUGUCUCCUAUCUGUGGGUAUAGUACCAGGCCUUGUCCGGGUAGAAAUUUCAACAGAGGAUUGAGCAUCA
# B3: chr1:113244022:113244023:-_ENSG00000155366_ENST00000369637|hu_mus|FALSE|FALSE (ssRNA)
# RNA: GGGAGUUCUACAGUCCGACGAUCCCAGCCCGGUUCCCAGAGGCAGGGAGGAAGGGCCUAGCAGCCCCCACUUGGGGCUGGGAAACUCAUGCAGUCCUGGGCAGAAAGGAACCAAAAAAGAAACUGGCAGCAUGGAGUCCUACACAACAGAGGAUUGAGCAUCA
# B4: chr7:118215863:118215864:-_ENSMUSG00000005610_ENSMUST00000162415|mus_hu|motif|central (ssRNA)
# RNA: GGGAGUUCUACAGUCCGACGAUCUAUUGCAACAACUCAAGUAUUACUGAGCAAAGUGCAUUUCUACAGUAUUCAGUGUUGCGGUUCAGUUUUCUAACUUAAAACAGCCUAUGAUAACUGGCAGCAAAGAAGGUCCUUGCAAUACAACAGAGGAUUGAGCAUCA
# B5: 56591056_56591176_1091_CDS_ENSG00000188021_ENST00000338222|human|control|control (ssRNA)
# RNA: GGGAGUUCUACAGUCCGACGAUCAUUACCCCCAAACUGCUCUUGUGCGGCAUUCAGCAUCGGCUCUUGAAUGUCAGUGUACAUGCGCCGUAAAGCAUUAUAGCCACCUGGGAUGCUUUCUAGAUUGCUAAGAGCCAGGUCUUGCAACAGAGGAUUGAGCAUCA
# B6: 120167749_120168985_582_CDS_ENSMUSG00000027291_ENSMUST00000028752|mouse|control|control (ssRNA)
# RNA: GGGAGUUCUACAGUCCGACGAUCAACGCAGAUAGAAUUUUCACACCAUGCCAUGGACUUGGGCACAUCUGGCACACUAAAGUCUCCCUGCAGUUCGUGGAAUUCUCUGUCCUUCCAGAAGUACAGCUGCAGCUUCUUCCUCACCAACAGAGGAUUGAGCAUCA
# B7: chr1:78428562:78428563:-_ENSG00000162613_ENST00000370768|hu_hu|motif|central (ssRNA)
# RNA: GGGAGUUCUACAGUCCGACGAUCAAUUGUAAAUAACUUCAUAUUAGGAUCUGCAUUUGGUGGAGGAUUUCUCUGAAGUUCGGUUCUUGCACCAGACUGCUGGCUUAUGCUUUUUAUGGUUUCACCUCCUUUUCCUAUUAUUAACAACAGAGGAUUGAGCAUCA
# B8: chr11:106683525:106683526:-_ENSMUSG00000018363_ENSMUST00000103067|mus_mus|FALSE|FALSE (ssRNA)
# RNA: GGGAGUUCUACAGUCCGACGAUCUGAUCCCUCUUUAGCCAAUUGUUUACAAAGGUGGAACAAUCCAAAAUAACUUUAUUUAAUUUCUUACAAAGAGCAGGUAUAGGAGUUGUUCAAAAAUCAUGUACUCAAUCAAAAUGAAGUCAACAGAGGAUUGAGCAUCA
# B9: chr10:33190432:33190433:-_ENSG00000150093_ENST00000302278|hu_mus|hu_hu_hu_mus_True|88_88 (ssRNA)
# RNA: GGGAGUUCUACAGUCCGACGAUCUACAUUUUCCAAACCUGCAUGUGAGUAAAACCAUGGCCACAGAGCCCCAAAACUACCCUACUGUGACUAAGAUGCUGCUGCUGUGAGCUUGGUGUUGCAAAAUCCGCCUGAGUAGGAUUCCAACAGAGGAUUGAGCAUCA
# B10: 231473864_231473984_131_5pUTR_ENSG00000010072_ENST00000295050|human|control|control (ssRNA)
# RNA: GGGAGUUCUACAGUCCGACGAUCCGGAAACGCGCUUGAGAACGAGAACGGAGCUUACCCCAAACGCCGAAGCCAAGAUUCUAGGGCUUUAAAAAAAGCAGUCAGCAUGACACCUCCUAGUGGGCGCAGAACCUGGGCUCACAGCAACAGAGGAUUGAGCAUCA
# B11: chrX:71549400:71549401:+_ENSMUSG00000019087_ENSMUST00000019231|mus_hu|mus_mus_mus_hu_False|1_18 (ssRNA)
# RNA: GGGAGUUCUACAGUCCGACGAUCGCAGUAGGAAGAGGGAAGCUCUUCAGUCCAGUGCGCUGCAGGGUGGGAAAGCAACAACACGGACACCGUCCCACCCUCAACCCCCCCACUGGCAUGUCACACAACAAUCUGGGAAGUGAUCAACAGAGGAUUGAGCAUCA
# B12: chr5:73930785:73930786:-_ENSG00000171617_ENST00000302351|hu_mus|FALSE|FALSE (ssRNA)
# RNA: GGGAGUUCUACAGUCCGACGAUCCUUGGCUGUCACAUCUCCCACCUUGGUCCACUGGUAAGUCUCACUAUUGAAUUUGUAAGCGGAGCAGGCAGAGAACUCUGUAUCUCCACCCAUGAUAAAAAUCUGGUUUCCCAGCACAGCCAACAGAGGAUUGAGCAUCA
# B13: chr5:86670034:86670035:+_ENSG00000145715_ENST00000456692|hu_mus|motif|central (ssRNA)
# RNA: GGGAGUUCUACAGUCCGACGAUCCUCUGACCAUACUGGGUUUUGCCCCUCCCUUGCAUGAGUUUUUGCUACUUGGACGCGGUUCAAGUAGAUGUUACAAUAUGGAUUAGUAAAGUGUUUUACUGGUAGUUUAUGGGCUUCUUCCAACAGAGGAUUGAGCAUCA
# B14: chr16:94690093:94690094:+_ENSMUSG00000040785_ENSMUST00000117648|mus_hu|mus_mus_mus_hu_True|38_38 (ssRNA)
# RNA: GGGAGUUCUACAGUCCGACGAUCGGGCUGGGAUGACGGACACACAGCCUCGAUUCCAGGGGGAAAAAGUCUUAGUCGAUACUAAUUAAAAAGUGUUUUUAUAAUUGGAAAAUCAGAUUACAUCUAUAAAAGAUGAAAAGCAAACAACAGAGGAUUGAGCAUCA
# Molecular target: T1, UNK ZnF1-3
# Assay: nsRBNS (natural sequence RNA bind-n-seq); RBNS binding buffer (assumed for nsRBNS): 25 mM Tris pH 7.5, 150 mM KCl, 3 mM MgCl2, 0.01% Triton X-100, 500 ug/ml BSA, 20 U/ml SUPERase-In, 4 C; UNK is unkempt and MSI1 is Musashi-1; names of the RNAs are library labels; protein concentration not given here; high values mean tight binding
row,Binder,binding signal
1,B1,0.798 enrichment R
2,B2,1.19 enrichment R
3,B3,1.13 enrichment R
4,B4,0.963 enrichment R
5,B5,0.829 enrichment R
6,B6,1.09 enrichment R
7,B7,0.537 enrichment R
8,B8,2.05 enrichment R
9,B9,0.993 enrichment R
10,B10,0.835 enrichment R
11,B11,1.26 enrichment R
12,B12,1.77 enrichment R
13,B13,0.377 enrichment R
14,B14,1.15 enrichment R
